# Measured values from PubChem BioAssay AID1768 (National Center for Advancing Translational Sciences (NCATS), 2009).
# Out of some 270,000 compounds screened, about 620 (0.23%) were called active. The inconclusive results got no clear call from the source; some entries with a clear call stand among them for comparison. Calls come from the whole dose curve; as a rule, active = well fitted inhibition curve with a large enough effect in the polarisation, with a control signal flat (not every such curve was filed as active); inconclusive = small, poorly fitted or top-dose-only effect, or effect the other way, or a change in a side signal; inactive = no such curve, though single readings can be large or run the other way; the % refers to the polarisation. A potency beside an inconclusive call is a rough fit, not a confirmed value. “Side channel” marks fits to a control or component signal instead of the main read-out.
# Molecular target: Menin (Homo sapiens) (UniProt O00255)
# Experiment: qHTS Assay for Inhibitors Targeting the Menin-MLL Interaction in MLL Related Leukemias: Competition With Texas Red Labeled MLL-derived Mutant Peptide
# Details: fluorescence polarization; series mostly up to 61.6 µM
# Potency is the fitted concentration of half-maximal effect; tags give direction and shape of the fitted curve or compound fluorescence and quenching.
# Chain of UniProt O00255 (O00255 whole entry, looked up): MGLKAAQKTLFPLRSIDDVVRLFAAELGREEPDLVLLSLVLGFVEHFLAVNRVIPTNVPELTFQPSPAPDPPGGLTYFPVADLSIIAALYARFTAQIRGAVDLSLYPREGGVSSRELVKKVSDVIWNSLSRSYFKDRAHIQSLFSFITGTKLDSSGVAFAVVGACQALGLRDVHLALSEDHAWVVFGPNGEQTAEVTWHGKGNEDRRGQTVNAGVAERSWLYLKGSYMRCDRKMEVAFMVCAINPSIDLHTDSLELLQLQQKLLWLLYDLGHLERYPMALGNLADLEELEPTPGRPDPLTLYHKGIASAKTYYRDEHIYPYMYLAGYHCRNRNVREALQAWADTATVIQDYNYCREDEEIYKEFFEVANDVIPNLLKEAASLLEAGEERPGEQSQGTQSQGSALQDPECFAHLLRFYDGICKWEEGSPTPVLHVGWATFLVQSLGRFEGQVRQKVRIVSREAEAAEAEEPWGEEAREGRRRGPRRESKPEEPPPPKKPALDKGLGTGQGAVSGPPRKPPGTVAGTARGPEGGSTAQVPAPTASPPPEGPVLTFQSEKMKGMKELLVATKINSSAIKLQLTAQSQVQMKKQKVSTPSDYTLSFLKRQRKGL
row,Structure (SMILES),Potency
1,CCCCN(CC)C(=O)Cn1ncc2c3ccccc3n(CCC)c2c1=O,"inconclusive: 3.98 µM [fluorescent, side channel, full curve]"
2,Cc1cc([N+](=O)[O-])nn1CC(=O)Nc1nc2ccccc2s1,"inconclusive: 25.1 µM [quencher, side channel, partial curve]"
3,O=C(NCCc1cccnc1)C1CCC(=O)N(Cc2cccc(C(F)(F)F)c2)C1 (configuration not stated),"inconclusive: 1.26 µM [inhibitor, full curve, poor fit]"
4,Cc1ccc2c(c1)cc(C(=O)NCc1ccccc1)n2C,"inconclusive: 39.8 µM [inhibitor, single point]"
5,O=C(NCc1ccccc1)c1c[nH]c2ccc(S(=O)(=O)Nc3ccc4c(c3)OCCO4)cc2c1=O,"inconclusive: 14.1 µM [quencher, side channel, partial curve]"
6,COc1cccc(OC)c1C(=O)NNC(=O)c1cccc(COc2ccc3c(c2)CCC3)c1,"inconclusive: 3.55 µM [fluorescent, side channel, partial curve]"
7,COc1ccc(C2C3=C(CC(C)(C)CC3=O)Nc3c2c(=O)n(C)c(=O)n3C)cc1OC (configuration not stated),inactive
8,COc1ccc(OC)c(-c2nnc3n2N=C(c2ccccc2OC)CS3)c1,"inconclusive: 1 µM [inhibitor, full curve, poor fit]"
9,Cc1cc(C(=O)N/N=C/c2ccc(-c3ccc([N+](=O)[O-])cc3Cl)o2)n[nH]1,"inconclusive: 7.08 µM [quencher, side channel, single point]"
10,COc1cc(/C=C2\SC(=S)N(NC(=O)c3ccccc3O)C2=O)ccc1O,"inconclusive: 10 µM [fluorescent, side channel, partial curve]"
11,FC(F)Oc1ccc(/C=N/c2c(-c3ccc(OC(F)F)cc3)nc3n2CCS3)cc1,"inconclusive: 1.78 µM [quencher, side channel, full curve]"
12,COc1ccc(-c2ccc(/C=C3\C(=O)N(c4ccccc4)N=C3c3ccccc3)o2)c([N+](=O)[O-])c1,"inconclusive: 3.16 µM [quencher, full curve]"
13,c1ccc2c(c1)oc1c(NCCN3CCOCC3)ncnc12,"inconclusive: 4.47 µM [inhibitor, full curve]"
14,Fc1ccc(-c2n[nH]c(=S)n2Cc2ccccc2)cc1,"inconclusive: 7.94 µM [inhibitor, partial curve]"
15,CCC(C(=O)OCC(=O)NC(=O)NC(C)(C)C)c1ccccc1 (configuration not stated),"inconclusive: 22.4 µM [fluorescent, side channel, single point]"
16,Cc1ccnc(Nc2nc(-c3ccc(O)cc3)cs2)c1,"inconclusive: 14.1 µM [quencher, side channel, partial curve]"
17,Cc1nn(-c2ccc(F)cc2)c2nc(N)c(C#N)c(-c3ccc(O)c(O)c3)c12,"inconclusive: 17.8 µM [quencher, side channel, partial curve]"
18,COc1cccc(Cn2c(=O)cnc3cnc(Nc4cccc(OC)c4)nc32)c1,"inconclusive: 10 µM [quencher, side channel, partial curve]"
19,Cc1ccsc1C(=O)OCC(=O)c1cc2ccccc2o1,"inconclusive: 39.8 µM [quencher, side channel, single point]"
20,COc1ccc(C2=NC(c3ccc(Cl)cc3)C(c3ccc(Cl)cc3)N2C(=O)N2CCNC(=O)C2)c(OC(C)C)c1 (configuration not stated),inactive
21,O=C(CNC(=O)c1cccc(OC(F)F)c1)OCc1cc(=O)n2cc(Br)ccc2n1,"inconclusive: 31.6 µM [quencher, side channel, single point]"
22,[O-]/C(=C(\C(=S)NCc1ccccc1)[n+]1ccccc1)c1ccc(Cl)s1,"inconclusive: 39.8 µM [quencher, side channel, single point]"
23,O=C(Nc1ccc(NC(=O)c2cccnc2Cl)cc1)c1cccc(Cl)c1,"inconclusive: 39.8 µM [fluorescent, side channel, single point]"
24,O=C(Nc1nccs1)c1cnccn1,inactive
25,Cc1cc(NS(=O)(=O)c2ccccc2)cc(Cl)c1O,inactive
26,Cc1ccc2nc(-c3cccc(N)c3)oc2c1,inactive

row,Structure (SMILES),Potency
1,Cc1ccc(-c2nc(Nc3cccc(C)c3)sc2CC(=O)O)cc1,"inconclusive: 15.8 µM [quencher, side channel, partial curve]"
2,O=C(O)c1cccc(S(=O)(=O)N2CCN(C(c3ccccc3)c3ccccc3)CC2)c1,"inconclusive: 39.8 µM [inhibitor, single point]"
3,Cc1cc(-c2nnc(CCC(=O)NC(Cc3ccccc3)c3ccccc3)o2)no1 (configuration not stated),"inconclusive: 7.94 µM [fluorescent, side channel, partial curve]"
4,CCc1nc(-c2cc3ccc(C)cc3[nH]c2=O)no1,"inconclusive: 0.708 µM [inhibitor, full curve, poor fit]"
5,CN(C)c1ccc(NC(=O)CSc2nc(N)c(C(=O)Nc3ccc(N(C)C)cc3)s2)cc1,"inconclusive: 15.8 µM [quencher, side channel, single point]"
6,COc1ccc(CN2CCN(Cc3cc(=O)oc4cc(C)ccc34)CC2)c(OC)c1OC,"inconclusive: 25.1 µM [inhibitor, partial curve]"
7,COc1ccc(F)cc1S(=O)(=O)NCC1CCCO1 (configuration not stated),inactive
8,CN(C)c1ccc(C(CNS(=O)(=O)c2ccc(F)cc2)c2c[nH]c3ccccc23)cc1 (configuration not stated),"inconclusive: 25.1 µM [quencher, side channel, partial curve]"
9,O=C(O)c1ccc(N/N=C/c2cc(Br)cs2)cc1,"inconclusive: 31.6 µM [quencher, side channel, single point]"
10,CCOC(=O)C1=C[C@@H](C(=O)OCC)[C@@H]2C3=C(C(=O)C2(C)C)[C@H](c2ccccc2)[C@@H]2C(=O)N(c4ccccc4)C(=O)[C@@H]2[C@@H]3C1,inactive
11,O=[N+]([O-])c1cccc(Cl)c1NCCNS(=O)(=O)c1ccccc1,inactive
12,COc1ccc(-c2nsc(C(=O)N(c3ccc(F)cc3)C(C(=O)NC3CCCC3)c3ccc(OC)cc3)c2N)cc1 (configuration not stated),"inconclusive: 31.6 µM [inhibitor, single point]"
13,S=c1[nH]nc(COc2ccccc2)n1/N=C/c1cccc(Cl)c1Cl,"inconclusive: 25.1 µM [quencher, partial curve]"
14,Fc1cccc(/C=N/Nc2nncc3ccccc23)c1,"inconclusive: 10 µM [quencher, side channel, partial curve]"
15,C[C@@H]1C(c2cccc(Cl)c2)=NN(c2ccccc2)[C@H]1C(=O)N1CCOC1=O,"inconclusive: 5.01 µM [quencher, side channel, full curve, poor fit]"
16,COc1cc(C(=O)Oc2ccc3ccc(O)cc3c2)cc(OC)c1OC,"inconclusive: 28.2 µM [quencher, side channel, single point]"
17,COc1c([N+](=O)[O-])cc(C(=O)NNC(=O)c2ccc(C)cc2)cc1[N+](=O)[O-],"inconclusive: 39.8 µM [quencher, side channel, single point]"
18,CCCCOC(=O)n1c(SCC(=O)N(CC)CC)nc2ccccc21,"inconclusive: 1.12 µM [fluorescent, side channel, full curve]"
19,COc1ccc(CCNC(=O)CSc2cn(Cc3ccccc3)c3ccccc23)cc1OC,"inconclusive: 15.8 µM [fluorescent, side channel, partial curve]"
20,COc1cc(CNC(C)c2ccccc2)cc(Br)c1OCc1ccccc1 (configuration not stated),"inconclusive: 5.01 µM [fluorescent, side channel, partial curve]"
21,O=c1c(-c2cccc(Cl)c2)c[nH]n1-c1ccccc1,"inconclusive: 22.4 µM [quencher, side channel, partial curve]"
22,Cc1c(Br)c([N+](=O)[O-])nn1CC(=O)NCc1cccs1,"inconclusive: 39.8 µM [quencher, side channel, single point]"
23,O=C(C/C=N\OCc1ccc([N+](=O)[O-])cc1)Nc1ccc(Br)cc1,"inconclusive: 20 µM [quencher, side channel, single point]"
24,CC(=O)C12CCCCC1CC1[C@@H]3CC(C)C4=CC(=O)CC[C@]4(C)C3CC[C@@]12C (some centres not stated),"inconclusive: 7.94 µM [fluorescent, side channel, full curve]"
25,Oc1c(C=Nc2cccc3cccnc23)sc2ccccc12,"inconclusive: 22.4 µM [quencher, side channel, partial curve]"
26,CC[C@H](C)[C@H](NC(=O)[C@H](Cc1cnc[nH]1)NC(=O)[C@@H](NC(=O)[C@H](CCCNC(=N)N)NC(=O)[C@H](CCCCN)NC(=O)[C@H](CCCNC(=N)N)NC(=O)[C@H](CCCCN)NC(=O)[C@@H](N)CC(N)=O)[C@@H](C)CC)C(=O)NCC(=O)N1CCC[C@H]1C(=O)NCC(=O)N[C@@H](CCCNC(=N)N)C(=O)N[C@@H](C)C(=O)N[C@@H](Cc1ccccc1)C(=O)N[C@@H](Cc1ccc(O)cc1)C(=O)N[C@H](C(=O)N[C@H](C(=O)N[C@@H](CCCCN)C(=O)N[C@@H](CC(N)=O)C(=O)N[C@H](C(=O)N[C@H](C(=O)NCC(=O)N[C@H](C(=O)N[C@H](C(=O)N[C@@H](CS)C(=O)O)[C@@H](C)CC)[C@@H](C)O)[C@@H](C)CC)[C@@H](C)CC)[C@@H](C)O)[C@@H](C)O,"inconclusive: 20 µM [inhibitor, partial curve]"
